Assay results: the supplement of paper PMC12458215

These sequences were tested on HEK293T (assay: plasma membrane surface immunostaining intensity (anti-HA, deep receptor scanning) (arbitrary fluorescence units); higher = higher plasma membrane expression). Conditions: GPCR class: A.
In the case of “MNASCCLPSVQPTLPNGSEHLQAPFFSNQSSSAFCEQVFIKPEVFLSLGIVSLLENILVILAVVRNGNLHSPMYFFLCSLAVADMLVSVSNALETIMIAIVHSDYLTFEDQFIQHMDNIFDSMICISLVASICNLLAIAVDRYVTIFYALRYHSIMTVRKALTLIVAIWVCCGVCGVVFIVYSESKMVIVCLITMFFAMMLLMGTLYVHMFLFARLHVKRIAALPPADGVAPQQHSCMKGAVTITILLGVFIFCWAPFFLHLVLIITCPTNPYCICYTAHFNTYLVLIMCNSVIDPLIYAFRSLELRNTFREILCGCNGMNLG [MC3R]”, the “plasma membrane surface immunostaining intensity” value is reported as 6358 ± 31. For “MNRHHLQDHFLEIDKKNCCVFRDDFIAKVLPPVLGLEFIFGLLGNGLALWIFCFHLKSWKSSRIFLFNLAVADFLLIICLPFVMDYYVRRSDWKFGDIPCRLVLFMFAMNRQGSIIFLTVVAVDRYFRVVHPHHALNKISNWTAAIISCLLWGITVGLTVHLLKKKLLIQNGTANVCISFSICHTFRWHEAMFLLEFFLPLGIILFCSARIIWSLRQRQMDRHAKIKRAITFIMVVAIVFVICFLPSVVVRIHIFWLLHTSGTQNCEVYRSVDLAFFITLSFTYMNSMLDPVVYYFSSPSFPNFFSTLINRCLQRKITGEPDNNRSTSVELTGDPNKTRGAPEALIANSGEPWSPSYLGPTSNNHSKKGHCHQEPASLEKQLGCCIE [HCAR3]”, the “plasma membrane surface immunostaining intensity” value was 6280 ± 200. In the case of “MVPEPGPTANSTPAWGAGPPSAPGGSGWVAAALCVVIALTAAANSLLIALICTQPALRNTSNFFLVSLFTSDLMVGLVVMPPAMLNALYGRWVLARGLCLLWTAFDVMCCSASILNLCLISLDRYLLILSPLRYKLRMTPLRALALVLGAWSLAALASFLPLLLGWHELGHARPPVPGQCRLLASLPFVLVASGLTFFLPSGAICFTYCRILLAARKQAVQVASLTTGMASQASETLQVPRTPRPGVESADSRRLATKHSRKALKASLTLGILLGMFFVTWLPFFVANIVQAVCDCISPGLFDVLTWLGYCNSTMNPIIYPLFMRDFKRALGRFLPCPRCPRERQASLASPSLRTSHSGPRPGLSLQQVLPLPLPPDSDSDSDAGSGGSSGLRLTAQLLLPGEATQDPPLPTRAAAAVNFFNIDPAEPELRPHPLGIPTN [HTR6]”, the “plasma membrane surface immunostaining intensity” value is reported as 2630 ± 860. “MARGGAGAEEASLRSNALSWLACGLLALLANAWIILSISAKQQKHKPLELLLCFLAGTHILMAAVPLTTFAVVQLRRQASSDYDWNESICKVFVSTYYTLALATCFTVASLSYHRMWMVRWPVNYRLSNAKKQALHAVMGIWMVSFILSTLPSIGWHNNGERYYARGCQFIVSKIGLGFGVCFSLLLLGGIVMGLVCVAITFYQTLWARPRRARQARRVGGGGGTKAGGPGALGTRPAFEVPAIVVEDARGKRRSSLDGSESAKTSLQVTNLVSAIVFLYDSLTGVPILVVSFFSLKSDSAPPWMVLAVLWCSMAQTLLLPSFIWSCERYRADVRTVWEQCVAIMSEEDGDDDGGCDDYAEGRVCKVRFDANGATGPGSRDPAQVKLLPGRHMLFPPLERVHYLQVPLSRRLSHDETNIFSTPREPGSFLHKWSSSDDIRVLPAQSRALGGPPEYLGQRHRLEDEEDEEEAEGGGLASLRQFLESGVLGSGGGPPRGPGFFREEITTFIDETPLPSPTASPGHSPRRPRPLGLSPRRLSLGSPESRAVGLPLGLSAGRRCSLTGGEESARAWGGSWGPGNPIFPQLTL [GPR162]” was tested, and the “plasma membrane surface immunostaining intensity” value was 708 ± 170. With “MQAAGHPEPLDSRGSFSLPTMGANVSQDNGTGHNATFSEPLPFLYVLLPAVYSGICAVGLTGNTAVILVILRAPKMKTVTNVFILNLAVADGLFTLVLPVNIAEHLLQYWPFGELLCKLVLAVDHYNIFSSIYFLAVMSVDRYLVVLATVRSRHMPWRTYRGAKVASLCVWLGVTVLVLPFFSFAGVYSNELQVPSCGLSFPWPEQVWFKASRVYTLVLGFVLPVCTICVLYTDLLRRLRAVRLRSGAKALGKARRKVTVLVLVVLAVCLLCWTPFHLASVVALTTDLPQTPLVISMSYVITSLSYANSCLNPFLYAFLDDNFRKNFRSILRC [NPBWR2]” the “plasma membrane surface immunostaining intensity” value was 444 ± 29. For “MGSPWNGSDGPEGAREPPWPALPPCDERRCSPFPLGALVPVTAVCLCLFVVGVSGNVVTVMLIGRYRDMRTTTNLYLGSMAVSDLLILLGLPFDLYRLWRSRPWVFGPLLCRLSLYVGEGCTYATLLHMTALSVERYLAICRPLRARVLVTRRRVRALIAVLWAVALLSAGPFLFLVGVEQDPGISVVPGLNGTARIASSPLASSPPLWLSRAPPPSPPSGPETAEAAALFSRECRPSPAQLGALRVMLWVTTAYFFLPFLCLSILYGLIGRELWSSRRPLRGPAASGRERGHRQTVRVLLVVVLAFIICWLPFHVGRIIYINTEDSRMMYFSQYFNIVALQLFYLSASINPILYNLISKKYRAAAFKLLLARKSRPRGFHRSRDTAGEVAGDTGGDTVGYTETSANVKTMG [MLNR]”, the “plasma membrane surface immunostaining intensity” value was 6355 ± 60. In the case of “MLPPGSNGTAYPGQFALYQQLAQGNAVGGSAGAPPLGPSQVVTACLLTLLIIWTLLGNVLVCAAIVRSRHLRANMTNVFIVSLAVSDLFVALLVMPWKAVAEVAGYWPFGAFCDVWVAFDIMCSTASILNLCVISVDRYWAISRPFRYKRKMTQRMALVMVGLAWTLSILISFIPVQLNWHRDQAASWGGLDLPNNLANWTPWEEDFWEPDVNAENCDSSLNRTYAISSSLISFYIPVAIMIVTYTRIYRIAQVQIRRISSLERAAEHAQSCRSSAACAPDTSLRASIKKETKVLKTLSVIMGVFVCCWLPFFILNCMVPFCSGHPEGPPAGFPCVSETTFDVFVWFGWANSSLNPVIYAFNADFQKVFAQLLGCSHFCSRTPVETVNISNELISYNQDIVFHKEIAAAYIHMMPNAVTPGNREVDNDEEEGPFDRMFQIYQTSPDGDPVAESVWELDCEGEISLDKITPFTPNGFH [DRD5]”, the “plasma membrane surface immunostaining intensity” value is reported as 480 ± 80. “MANASEPGGSGGGEAAALGLKLATLSLLLCVSLAGNVLFALLIVRERSLHRAPYYLLLDLCLADGLRALACLPAVMLAARRAAAAAGAPPGALGCKLLAFLAALFCFHAAFLLLGVGVTRYLAIAHHRFYAERLAGWPCAAMLVCAAWALALAAAFPPVLDGGGDDEDAPCALEQRPDGAPGALGFLLLLAVVVGATHLVYLRLLFFIHDRRKMRPARLVPAVSHDWTFHGPGATGQAAANWTAGFGRGPTPPALVGIRPAGPGRGARRLLVLEEFKTEKRLCKMFYAVTLLFLLLWGPYVVASYLRVLVRPGAVPQAYLTASVWLTFAQAGINPVVCFLFNRELRDCFRAQFPCCQSPRTTQATHPCDLKGIGL [GPR27]” was tested, and the “plasma membrane surface immunostaining intensity” value was 6013 ± 29. In the case of “MEGEPSQPPNSSWPLSQNGTNTEATPATNLTFSSYYQHTSPVAAMFIVAYALIFLLCMVGNTLVCFIVLKNRHMHTVTNMFILNLAVSDLLVGIFCMPTTLVDNLITGWPFDNATCKMSGLVQGMSVSASVFTLVAIAVERFRCIVHPFREKLTLRKALVTIAVIWALALLIMCPSAVTLTVTREEHHFMVDARNRSYPLYSCWEAWPEKGMRRVYTTVLFSHIYLAPLALIVVMYARIARKLCQAPGPAPGGEEAADPRASRRRARVVHMLVMVALFFTLSWLPLWALLLLIDYGQLSAPQLHLVTVYAFPFAHWLAFFNSSANPIIYGYFNENFRRGFQAAFRARLCPRPSGSHKEAYSERPGGLLHRRVFVVVRPSDSGLPSESGPSSGAPRPGRLPLRNGRVAHHGLPREGPGCSHLPLTIPAWDI [NPFFR1]”, the “plasma membrane surface immunostaining intensity” value is reported as 784 ± 25. “MGPTSVPLVKAHRSSVSDYVNYDIIVRHYNYTGKLNISADKENSIKLTSVVFILICCFIILENIFVLLTIWKTKKFHRPMYYFIGNLALSDLLAGVAYTANLLLSGATTYKLTPAQWFLREGSMFVALSASVFSLLAIAIERYITMLKMKLHNGSNNFRLFLLISACWVISLILGGLPIMGWNCISALSSCSTVLPLYHKHYILFCTTVFTLLLLSIVILYCRIYSLVRTRSRRLTFRKNISKASRSSEKSLALLKTVIIVLSVFIACWAPLFILLLLDVGCKVKTCDILFRAEYFLVLAVLNSGTNPIIYTLTNKEMRRAFIRIMSCCKCPSGDSAGKFKRPIIAGMEFSRSKSDNSSHPQKDEGDNPETIMSSGNVNSSS [S1PR1]” was tested, and the “plasma membrane surface immunostaining intensity” value was 1970 ± 490. In the case of “MAGNCSWEAHPGNRNKMCPGLSEAPELYSRGFLTIEQIAMLPPPAVMNYIFLLLCLCGLVGNGLVLWFFGFSIKRNPFSIYFLHLASADVGYLFSKAVFSILNTGGFLGTFADYIRSVCRVLGLCMFLTGVSLLPAVSAERCASVIFPAWYWRRRPKRLSAVVCALLWVLSLLVTCLHNYFCVFLGRGAPGAACRHMDIFLGILLFLLCCPLMVLPCLALILHVECRARRRQRSAKLNHVILAMVSVFLVSSIYLGIDWFLFWVFQIPAPFPEYVTDLCICINSSAKPIVYFLAGRDKSQRLWEPLRVVFQRALRDGAELGEAGGSTPNTVTMEMQCPPGNAS [MRGPRF]”, the “plasma membrane surface immunostaining intensity” value is reported as 6500 ± 40. In the case of “MEWDNGTGQALGLPPTTCVYRENFKQLLLPPVYSAVLAAGLPLNICVITQICTSRRALTRTAVYTLNLALADLLYACSLPLLIYNYAQGDHWPFGDFACRLVRFLFYANLHGSILFLTCISFQRYLGICHPLAPWHKRGGRRAAWLVCVAVWLAVTTQCLPTAIFAATGIQRNRTVCYDLSPPALATHYMPYGMALTVIGFLLPFAALLACYCLLACRLCRQDGPAEPVAQERRGKAARMAVVVAAAFAISFLPFHITKTAYLAVRSTPGVPCTVLEAFAAAYKGTRPFASANSVLDPILFYFTQKKFRRRPHELLQKLTAKWQRQGR [P2RY6]”, the “plasma membrane surface immunostaining intensity” value is reported as 2480 ± 530. For “MSAPSTLPPGGEEGLGTAWPSAANASSAPAEAEEAVAGPGDARAAGMVAIQCIYALVCLVGLVGNALVIFVILRYAKMKTATNIYLLNLAVADELFMLSVPFVASSAALRHWPFGSVLCRAVLSVDGLNMFTSVFCLTVLSVDRYVAVVHPLRAATYRRPSVAKLINLGVWLASLLVTLPIAIFADTRPARGGQAVACNLQWPHPAWSAVFVVYTFLLGFLLPVLAIGLCYLLIVGKMRAVALRAGWQQRRRSEKKITRLVLMVVVVFVLCWMPFYVVQLLNLFVTSLDATVNHVSLILSYANSCANPILYGFLSDNFRRFFQRVLCLRCCLLEGAGGAEEEPLDYYATALKSKGGAGCMCPPLPCQQEALQPEPGRKRIPLTRTTTF [SSTR4]”, the “plasma membrane surface immunostaining intensity” value was 5790 ± 75. For “MAADLGPWNDTINGTWDGDELGYRCRFNEDFKYVLLPVSYGVVCVPGLCLNAVALYIFLCRLKTWNASTTYMFHLAVSDALYAASLPLLVYYYARGDHWPFSTVLCKLVRFLFYTNLYCSILFLTCISVHRCLGVLRPLRSLRWGRARYARRVAGAVWVLVLACQAPVLYFVTTSARGGRVTCHDTSAPELFSRFVAYSSVMLGLLFAVPFAVILVCYVLMARRLLKPAYGTSGGLPRAKRKSVRTIAVVLAVFALCFLPFHVTRTLYYSFRSLDLSCHTLNAINMAYKVTRPLASANSCLDPVLYFLAGQRLVRFARDAKPPTGPSPATPARRRLGLRRSDRTDMQRIEDVLGSSEDSRRTESTPAGSENTKDIRL [P2RY2]”, the “plasma membrane surface immunostaining intensity” value was 6180 ± 130.

± gives the uncertainty stated by the source.
